The target of experiment [1] is T1, UBAC2 (co-IP of Appendix Fig. S1H) (human) (UniProt Q8NBM4).
T1 sequence: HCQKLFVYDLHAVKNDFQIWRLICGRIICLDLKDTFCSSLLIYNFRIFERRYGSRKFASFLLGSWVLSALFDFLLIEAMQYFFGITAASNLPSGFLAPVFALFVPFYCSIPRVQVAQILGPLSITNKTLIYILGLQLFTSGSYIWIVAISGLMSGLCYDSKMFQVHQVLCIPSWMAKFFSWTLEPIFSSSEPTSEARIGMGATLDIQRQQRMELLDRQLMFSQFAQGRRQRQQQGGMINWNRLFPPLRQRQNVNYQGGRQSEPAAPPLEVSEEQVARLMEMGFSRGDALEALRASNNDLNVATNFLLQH
The experiment in a line: co-IP; co-IP and immunoblot with and without starvation-induced autophagy (Appendix Fig. S1H); cells and antibodies not told in the text shown.

Protein sequences, listed by entry. Tags and fused reporters are not part of them. Residues count along the entry.
UniProt O95166: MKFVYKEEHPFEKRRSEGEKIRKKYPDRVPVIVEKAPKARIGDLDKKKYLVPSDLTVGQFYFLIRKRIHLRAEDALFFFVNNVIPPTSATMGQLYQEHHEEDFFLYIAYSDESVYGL
UniProt P60520: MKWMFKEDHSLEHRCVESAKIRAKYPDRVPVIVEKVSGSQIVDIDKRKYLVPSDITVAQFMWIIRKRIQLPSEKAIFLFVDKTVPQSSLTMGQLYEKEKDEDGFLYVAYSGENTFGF
UniProt Q9BXW4, residues 1-126: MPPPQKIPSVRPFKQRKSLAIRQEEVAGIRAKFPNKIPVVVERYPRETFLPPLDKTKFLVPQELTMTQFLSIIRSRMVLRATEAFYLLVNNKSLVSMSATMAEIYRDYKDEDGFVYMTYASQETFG
UniProt Q676U5: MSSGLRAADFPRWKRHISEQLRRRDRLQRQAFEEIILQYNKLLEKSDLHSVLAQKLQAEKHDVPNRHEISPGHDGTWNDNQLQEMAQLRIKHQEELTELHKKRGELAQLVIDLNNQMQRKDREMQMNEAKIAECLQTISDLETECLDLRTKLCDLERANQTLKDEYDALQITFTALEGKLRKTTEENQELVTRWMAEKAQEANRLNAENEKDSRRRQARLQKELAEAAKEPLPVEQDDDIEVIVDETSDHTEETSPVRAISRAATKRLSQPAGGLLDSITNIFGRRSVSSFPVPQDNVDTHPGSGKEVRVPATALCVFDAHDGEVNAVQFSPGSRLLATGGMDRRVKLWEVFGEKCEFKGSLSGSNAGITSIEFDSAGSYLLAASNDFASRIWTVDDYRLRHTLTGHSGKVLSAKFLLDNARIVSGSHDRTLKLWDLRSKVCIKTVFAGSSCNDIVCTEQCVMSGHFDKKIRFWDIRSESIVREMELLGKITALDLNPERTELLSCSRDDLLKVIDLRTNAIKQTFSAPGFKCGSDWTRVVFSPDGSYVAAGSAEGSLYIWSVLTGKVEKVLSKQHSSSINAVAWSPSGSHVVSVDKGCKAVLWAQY
UniProt Q9H6L5: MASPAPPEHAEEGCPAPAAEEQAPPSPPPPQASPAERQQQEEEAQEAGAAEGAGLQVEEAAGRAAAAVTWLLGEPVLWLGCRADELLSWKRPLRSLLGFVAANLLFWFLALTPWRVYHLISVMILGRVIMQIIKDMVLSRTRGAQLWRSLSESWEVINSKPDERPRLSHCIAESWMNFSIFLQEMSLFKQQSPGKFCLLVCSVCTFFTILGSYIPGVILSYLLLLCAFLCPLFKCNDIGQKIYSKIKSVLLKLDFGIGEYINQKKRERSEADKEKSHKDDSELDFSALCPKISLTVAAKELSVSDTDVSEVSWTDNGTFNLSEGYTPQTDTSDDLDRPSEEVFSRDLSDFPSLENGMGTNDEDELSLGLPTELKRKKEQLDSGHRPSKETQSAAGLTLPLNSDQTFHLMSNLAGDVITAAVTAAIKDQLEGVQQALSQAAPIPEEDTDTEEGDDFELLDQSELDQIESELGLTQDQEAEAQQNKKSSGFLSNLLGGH
UniProt Q7KZI7: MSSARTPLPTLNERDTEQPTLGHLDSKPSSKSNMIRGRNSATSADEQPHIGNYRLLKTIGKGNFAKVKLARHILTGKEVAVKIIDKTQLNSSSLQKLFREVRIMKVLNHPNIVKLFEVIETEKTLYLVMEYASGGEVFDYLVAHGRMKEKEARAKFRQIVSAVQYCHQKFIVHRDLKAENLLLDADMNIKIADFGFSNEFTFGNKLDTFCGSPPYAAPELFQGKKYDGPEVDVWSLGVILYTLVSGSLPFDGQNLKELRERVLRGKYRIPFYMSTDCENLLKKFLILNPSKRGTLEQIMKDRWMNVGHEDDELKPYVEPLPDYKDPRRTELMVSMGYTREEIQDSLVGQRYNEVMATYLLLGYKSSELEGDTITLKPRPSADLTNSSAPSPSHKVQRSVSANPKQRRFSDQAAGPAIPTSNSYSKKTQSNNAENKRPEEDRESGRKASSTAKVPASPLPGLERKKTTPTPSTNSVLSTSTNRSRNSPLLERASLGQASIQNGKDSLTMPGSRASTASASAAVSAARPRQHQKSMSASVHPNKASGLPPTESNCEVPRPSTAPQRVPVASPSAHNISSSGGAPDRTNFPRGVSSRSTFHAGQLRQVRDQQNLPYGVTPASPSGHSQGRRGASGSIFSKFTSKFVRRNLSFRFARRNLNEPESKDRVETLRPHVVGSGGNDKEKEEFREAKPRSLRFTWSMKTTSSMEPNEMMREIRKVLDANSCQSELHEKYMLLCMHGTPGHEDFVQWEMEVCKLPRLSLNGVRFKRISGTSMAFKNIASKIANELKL

The target in experiment [2] is T2, UBAC2, endogenous (human (endogenous in HeLa, THP-1, HT-29)) (UniProt Q8NBM4).
T2 sequence: T1 sequence
The experiment in a line: co-IP; extracts of HeLa cells incubated with or without EBSS for 3 h in the presence of Baf A1 (0.2 uM); IP with anti-UBAC2, immunoblot with indicated antibodies; endogenous proteins.

Experiment [3] concerns the target HA-UBAC2 (ubiquitin-associated domain-containing protein 2), wild type (human) (UniProt Q8NBM4). The experiment in a line: co-IP; Flag-UBAC2 and HA-UBAC2 co-expressed in 293T cells; IP with anti-Flag, immunoblot with anti-HA; with TG or EBSS treatment.
Experiment [4] addresses Flag-GABARAP, wild type (UniProt O95166). The experiment in a line: co-IP; HA-UBAC2 (WT or mutant) and Flag-tagged ATG8 family member co-expressed in HEK293T/293T cells; IP with anti-Flag (M2) beads, immunoblot with anti-HA; untreated or with TG (1 uM), EBSS, Baf A1 (0.2 uM) or MARK2 siRNA; beads washed 5 times with low-salt lysis buffer (50 mM HEPES, 150 mM NaCl, 1% Triton X-100).

The target in a further experiment is Flag-GABARAPL2 (UniProt P60520). The experiment is described as above.
The target of another experiment is Flag-LC3A (UniProt Q9H492). Described as above.
The next experiment concerns the target Flag-LC3C (UniProt Q9BXW4). The experiment is described as above.
For experiment [5], the target named is T2, UBAC2, endogenous (human (endogenous in HeLa, THP-1, HT-29)). The experiment can be described thus: co-IP; lysates of HeLa cells, THP-1 macrophages or HT-29 cells treated with TG (1 uM) or EBSS in the presence of Baf A1 (0.2 uM); immunoprecipitation and immunoblot of endogenous proteins; precipitating antibody not told.
Experiment [6] deals with Flag-GABARAP, wild type (UniProt O95166). The experiment can be described thus: co-IP; HA-UBAC2 (WT or mutant) and Flag-tagged ATG8 family member co-expressed in HEK293T/293T cells; IP with anti-Flag (M2) beads, immunoblot with anti-HA; untreated or with TG (1 uM), EBSS, Baf A1 (0.2 uM) or MARK2 siRNA; beads washed 5 times with low-salt lysis buffer (50 mM HEPES, 150 mM NaCl, 1% Triton X-100). This is another data set of the same source.

The target of experiment [7] is GABARAP, endogenous (human (endogenous in HeLa)) (UniProt O95166). The experiment in a line: co-IP; extracts of HeLa cells incubated with TG (1 uM) or EBSS for various times; IP with anti-GABARAP, immunoblot for UBAC2; endogenous proteins.
Experiment [8] concerns the target T2, UBAC2, endogenous (human (endogenous in HeLa, THP-1, HT-29)). The experiment can be described thus: cross-linking; lysates of MARK2 KO THP-1 macrophages or MARK2 KO HT-29 cells treated with TG (1 uM, 1 h) or EBSS (3 h) with Baf A1 (0.2 uM); 2 mM DSS, immunoblot for endogenous UBAC2.

Positions count from the first letter of the chain named. Numbers in names are those of the source. Where two headings read alike, the source gives them in different places. These are yes or no findings as the source states them, for the method shown. In cells and extracts the contact can be indirect. Some results given as binding are weak or reduced against the parent protein; the word gives no strength. For some assays here: Sequences can lack the tags named with a protein.

In the case of ATG16L1 (from UniProt Q676U5 1-607), in [1], the binding entry is on record as “binds”.
Take “FAM134B, endogenous (from UniProt Q9H6L5 1-497)”: in [2], the binding entry is given as “binds weakly”.
Consider “HA-UBAC2 (ubiquitin-associated domain-containing protein 2), wild type (from UniProt Q8NBM4 36-344)”, for which the binding result in experiment [3] is “binds”; with Flag-GABARAP, wild type [4], “binds”; in the experiment with Flag-GABARAPL2, “binds”; with Flag-LC3A, “binds”; with Flag-LC3C, “binds”.
For “microtubule affinity-regulating kinase 2 (MARK2), endogenous (from UniProt Q7KZI7 1-788) (enzyme)”, the binding result in [5] was “binds”.

B1: WIPI2 (protein, UniProt Q9Y4P8 1-454)
chain: MNLASQSGEAGAGQLLFANFNQDNTEVKGASRAAGLGRRAVVWSLAVGSKSGYKFFSLSSVDKLEQIYECTDTEDVCIVERLFSSSLVAIVSLKAPRKLKVCHFKKGTEICNYSYSNTILAVKLNRQRLIVCLEESLYIHNIRDMKVLHTIRETPPNPAGLCALSINNDNCYLAYPGSATIGEVQVFDTINLRAANMIPAHDSPLAALAFDASGTKLATASEKGTVIRVFSIPEGQKLFEFRRGVKRCVSICSLAFSMDGMFLSASSNTETVHIFKLETVKEKPPEEPTTWTGYFGKVLMASTSYLPSQVTEMFNQGRAFATVRLPFCGHKNICSLATIQKIPRLLVGAADGYLYMYNLDPQEGGECALMKQHRLDGSLETTNEILDSASHDCPLVTQTYGAAAGKGTYVPSSPTRLAYTDDLGAVGGACLEDEASALRLDEDSEHPPMILRTD
Turning to B1, the binding entry in experiment [1] is given as “binds”.

B2: HA-UBAC2 S223A (protein, UniProt Q8NBM4 36-344)
chain: T1 sequence with S188A
B2: the binding entry in the experiment with Flag-GABARAP, wild type [6] is on record as “binds”.

B3: HA-UBAC2 LIR mutant (LIRm; W275A and L278A) (protein, UniProt Q8NBM4 36-344)
chain: T1 sequence with W240A, L243A
Regarding B3, in the experiment with Flag-GABARAP, wild type [6], the binding result is “no binding”.

B4: UBAC2, endogenous (natural protein, human (endogenous in HeLa, THP-1, HT-29), UniProt Q8NBM4 36-344, looked up)
chain: T1 sequence
notes: UBAC2 endogenous in human cell lines; also called ubiquitin-associated domain-containing protein 2; source: endogenous, lysates of HeLa cells, THP-1-derived macrophages and HT-29 cells
With B4, the binding entry is given as “binds” in [7] and “no binding (condition: in MARK2 KO cells)” in experiment [8].

B5: UBAC2 S223D, transfected (cross-linking experiments) (natural protein, human, UniProt Q8NBM4 36-344, looked up)
chain: T1 sequence with S188D
notes: UBAC2, human; also called S223D mutant form of UBAC2
Consider B5, for which, in the experiment with Flag-GABARAP, wild type [6], the binding entry is “binds”.

The values are drawn from publication PMC11535055, “ER-phagy restrains inflammatory responses through its receptor UBAC2” (The EMBO Journal, 2024).
